This is an account of results in the supplement of paper PMC11417369.

Some of the results follow.

The subject of the assay is PfAP2-HC AP2 domain (GST-tagged). Put plainly: gcPBM binding intensity (ln(normalized median fluorescence intensity)); higher = stronger DNA binding. Put shortly:
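After 1 h on an Agilent 4 × 180k array of primer-extended double-stranded 36-bp intergenic genomic probes and negative controls, bound GST-tagged P. falciparum DNA-binding domains were detected with Alexa488 anti-GST antibody and scanned at 488 nm. The domains had been expressed in E. coli, and binding took place in 1× PBS with 1% milk, 0.2 mg/ml BSA, 0.5% salmon testes DNA and 0.03% Triton X-100. Binding intensity is the highest Masliner-normalised natural-log median intensity across replicate spots of either probe orientation.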
Regarding “TTTTATTATTGAATACTAGTATATATAATATGAAGA [CACACA_negctrl_site910]”, the “gcPBM binding intensity (ln)” value was 9.41.

For “ATATATATATTTTTTAAACACACACCGAAATATTTG [CACACA_site8937]”, the “gcPBM binding intensity (ln)” value is 9.99.

In the case of “TTAATTAAAACGAATACACACATAAATATATAAAAG [CACACA_site1254]”, the “gcPBM binding intensity (ln)” value amounted to 9.87.

“GTACAAATGTTGTGTATATATACACACATACATATA [XGTACX_negctrl_site276]”: the “gcPBM binding intensity (ln)” value was 9.86.

Consider “AACTTACTTGGACATACACACATATAGATTTATATA [CACACA_site7412]”, for which the “gcPBM binding intensity (ln)” value came out at 9.88.

Consider “ATGTAGTTTTATCAGTGTACAAGTATTTTATCACAT [XGTACX_site8958]”, for which the “gcPBM binding intensity (ln)” value amounted to 9.82.

Turning to “TATTATTATCTTACCACACACAATGTACGAAAAGAT [CACACA_site352]”, the “gcPBM binding intensity (ln)” value worked out at 9.92.

With “AAACATATATATATTATATATATATATATATATATG [GTGCAC_negctrl_site182]”, the “gcPBM binding intensity (ln)” value amounted to 9.44.

On to “TAACATATAATATTCACACACATATATATATTATAT [CACACA_site988]”, for which the “gcPBM binding intensity (ln)” value worked out at 10.2.

As to “AAATTAAAAAGACATTCACACATTTTCATCTTAACA [CACACA_site5221]”, the “gcPBM binding intensity (ln)” value is 9.68.

Take “TAAAATATTATAAAATGTACAAAACATATAAATATA [XGTACX_site5315]”: the “gcPBM binding intensity (ln)” value stood at 9.65.

Take “TGTAGGTATTATTATACACACATAAAAAAAAAAAAA [CACACA_site3598]”: the “gcPBM binding intensity (ln)” value is 9.71.

For the sequence “TATATAAACATATAAACATGCAATATATATATGTTA [TGCATGCA_site765]”, the “gcPBM binding intensity (ln)” value was found to be 9.57.

Regarding “AAAAATATATAACAAAGTACATATATATTTAGTAAT [XGTACX_site8791]”, the “gcPBM binding intensity (ln)” value is 9.85.

With “GGAAAAAAACTTATGAGTACACATAAATATAGCACA [XGTACX_site6686]”, the “gcPBM binding intensity (ln)” value was 9.66.

For the sequence “AAAAAAATTAAATCAAGTACTCATTCTTAAATTATA [XGTACX_site1274]”, the “gcPBM binding intensity (ln)” value is 9.31.

Take “TATATTTTCTATAGGTGTACTCCACATGCGGTGTTA [XGTACX_site7471]”: the “gcPBM binding intensity (ln)” value worked out at 9.55.

Take “ATATTGATACATCCAATACACACTACATATAATGAT [CACACA_site1874]”: the “gcPBM binding intensity (ln)” value turned out to be 9.98.

Take “TCCCTCTTTTTATTCTCACACACGTTTATATATAAA [CACACA_site1644]”: the “gcPBM binding intensity (ln)” value was found to be 10.

“ATATATGATGTAAAAGCACACATATATATATATATA [CACACA_site9330]”: the “gcPBM binding intensity (ln)” value turned out to be 9.64.

Consider “AATATATATAAATATTGTACAAAAATATATATATAT [XGTACX_site2910]”, for which the “gcPBM binding intensity (ln)” value was found to be 9.68.

For the sequence “AAACATCTTTACAACGTCCCTCCTTTTTTATGTACC [GTGCAC_negctrl_site528]”, the “gcPBM binding intensity (ln)” value is 9.79.

Turning to “ATTTTATTCTAAAAAGGTACACATATTATTTTATGA [XGTACX_site7233]”, the “gcPBM binding intensity (ln)” value was 9.31.

On to “TAAATAAGGAAGGAAACACACATTAAAAAATAAATA [CACACA_site618]”, for which the “gcPBM binding intensity (ln)” value amounted to 9.87.

For “AACAGAAGCACATACACACACTCAAAAAAAAAAAAA [CACACA_site5652]”, the “gcPBM binding intensity (ln)” value was 10.

With “TCTTACTAATATCGCACACACATATGTAGACGGGAT [CACACA_site87]”, the “gcPBM binding intensity (ln)” value was found to be 10.3.

Take “TATTTATATGGACACACACACATATAAATAAATAAA [CACACA_site6346]”: the “gcPBM binding intensity (ln)” value amounted to 10.2.

Consider “ATGGCCATAATATAGACACACATATATAAATATATA [CACACA_site2230]”, for which the “gcPBM binding intensity (ln)” value amounted to 9.76.

Consider “CGATATGTTCAATATTGTACTATTTATAATAATATG [XGTACX_site3051]”, for which the “gcPBM binding intensity (ln)” value is 9.57.

In the case of “TATTGACAAAATAGCTGTACAAATTAAAAGAAATAA [XGTACX_site4415]”, the “gcPBM binding intensity (ln)” value is 9.55.

On to “CTTAAAAAAAAAAAATGTACACATAAAAAAAATACA [XGTACX_site6700]”, for which the “gcPBM binding intensity (ln)” value was found to be 9.6.

Turning to “TTTAATTGATAATGAAGACAATTATATGCATCCAAA [TGCATGCA_negctrl_site138]”, the “gcPBM binding intensity (ln)” value was 9.49.

In the case of “TTATTGTCTTCTCATATACACACTTTTATGACTATC [CACACA_site3142]”, the “gcPBM binding intensity (ln)” value was 9.97.

As for “ATAATAATATATATTACACACGCATCGTTCATTTAT [CACACA_site8752]”, the “gcPBM binding intensity (ln)” value is 9.94.

For the sequence “ATTAATATATATGGATGTACTTATGTATGTATGCAT [XGTACX_site2263]”, the “gcPBM binding intensity (ln)” value came to 9.68.

As to “GGAAAAACCATTCGCACACACACATAATATATAATA [CACACA_site1424]”, the “gcPBM binding intensity (ln)” value came to 10.2.

As to “CATGTATAATATAATACACACTATATAATATACACC [CACACA_site5267]”, the “gcPBM binding intensity (ln)” value is 9.92.

Consider “ATATCATTAAAAGGATGTACATATGTGTATACAATA [XGTACX_site871]”, for which the “gcPBM binding intensity (ln)” value was 9.84.

For “TAATATCTAAAAAATATATTTTTTATTTTTTATTAA [CACACA_negctrl_site510]”, the “gcPBM binding intensity (ln)” value stood at 9.43.

With “TACATACATACATACACACACACATATATATACATA [CACACA_site853]”, the “gcPBM binding intensity (ln)” value came to 11.

As for “AATTTAAAATAATATTGTACTTAGATATAAATATGA [XGTACX_site4198]”, the “gcPBM binding intensity (ln)” value was 9.47.

For the sequence “TAAAAAATATAAACTGCACACACAAAAAAAAAAGAG [CACACA_site8379]”, the “gcPBM binding intensity (ln)” value stood at 10.3.

On to “ATGGTACACAAATATACATGCAATAATAAAAAAAAA [TGCATGCA_site879]”, for which the “gcPBM binding intensity (ln)” value was 9.73.

Consider “TTTTTATTACATAATTAAAAAAAATAATAAAATAAA [XGTACX_negctrl_site249]”, for which the “gcPBM binding intensity (ln)” value stood at 9.27.
